Experimental data: the supplement of paper PMC8728848
The list shows a part of the results.

Assays:
Test in all cases: glycan array binding signal (z-score within array); higher = stronger binding
Conditions in all cases: glycan notation: IUPAC condensed, linker removed
[1] = molecular target: GlcNAc(b1-4)GlcNAc(b1-4)GlcNAc(b1-4)GlcNAc(b1-4)GlcNAc
Summary of the method: (§1)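 The binding signal is a Z-score computed within each array. Data were drawn from 3228 arrays in the Consortium for Functional Glycomics database, restricted to those with a known protein sequence. Scores were averaged over arrays of the same protein sequence at different concentrations or buffers, and over linkers, and negative values can be taken as non-binding.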

[2] = molecular target: GlcNAc(b1-4)GlcNAc(b1-4)GlcNAc(b1-4)GlcNAc(b1-4)GlcNAc(b1-4)GlcNAc
Summary of the method: as §1

[3] = molecular target: GlcNAc(b1-4)[GlcNAc(b1-6)]GalNAc
Summary of the method: as §1

[4] = molecular target: GlcNAc(b1-6)Gal(b1-4)GlcNAc
Summary of the method: as §1

[5] = molecular target: GlcNAc(b1-6)GalNAc
Summary of the method: as §1

[6] = molecular target: Kdn(a2-3)Gal(b1-3)GlcNAc
Summary of the method: as §1

[7] = molecular target: Kdn(a2-3)Gal(b1-4)GlcNAc
Summary of the method: as §1

[8] = molecular target: Man(a1-2)Man(a1-2)Man(a1-3)Man
Summary of the method: as §1

[9] = molecular target: Man(a1-2)Man(a1-2)Man(a1-6)[Man(a1-3)]Man
Summary of the method: as §1

[10] = molecular target: Man(a1-2)Man(a1-3)Man
Summary of the method: as §1

[11] = molecular target: Man(a1-2)Man(a1-3)[Man(a1-2)Man(a1-6)]Man
Summary of the method: as §1

[12] = molecular target: Man(a1-2)Man(a1-3)[Man(a1-2)Man(a1-6)]Man(a1-6)[Man(a1-2)Man(a1-2)Man(a1-3)]Man(b1-4)GlcNAc(b1-4)GlcNAc
Summary of the method: as §1

[13] = molecular target: Man(a1-2)Man(a1-3)[Man(a1-6)]Man(a1-6)[Man(a1-2)Man(a1-3)]Man(b1-4)GlcNAc(b1-4)GlcNAc
Summary of the method: as §1

[14] = molecular target: Man(a1-2)Man(a1-6)[Man(a1-3)]Man(a1-6)[Man(a1-2)Man(a1-2)Man(a1-3)]Man(b1-4)GlcNAc(b1-4)GlcNAc
Summary of the method: as §1

[15] = molecular target: Man(a1-3)[Man(a1-6)]Man
Summary of the method: as §1

[16] = molecular target: Man(a1-3)[Man(a1-6)]Man(a1-6)[Man(a1-2)Man(a1-3)]Man(b1-4)GlcNAc(b1-4)GlcNAc
Summary of the method: as §1

[17] = molecular target: Man(a1-3)[Man(a1-6)]Man(a1-6)[Man(a1-3)]Man(b1-4)GlcNAc(b1-4)GlcNAc
Summary of the method: as §1

[18] = molecular target: Man(a1-3)[Man(a1-6)]Man(b1-4)GlcNAc(b1-4)GlcNAc
Summary of the method: as §1

[19] = molecular target: Man(b1-4)GlcNAc
Summary of the method: as §1

[20] = molecular target: Neu5Ac(a2-3)Gal
Summary of the method: as §1

[21] = molecular target: Neu5Ac(a2-3)Gal(b1-3)GalNAc
Summary of the method: as §1

[22] = molecular target: Neu5Ac(a2-3)Gal(b1-3)GalNAc(b1-3)Gal(a1-4)Gal(b1-4)Glc
Summary of the method: as §1

[23] = molecular target: Neu5Ac(a2-3)Gal(b1-3)GalNAc(b1-3)Gal(b1-4)GlcNAc
Summary of the method: as §1

[24] = molecular target: Neu5Ac(a2-3)Gal(b1-3)GalNAc(b1-4)[Neu5Ac(a2-3)]Gal(b1-4)Glc
Summary of the method: as §1

[25] = molecular target: Neu5Ac(a2-3)Gal(b1-3)GalNAc6S
Summary of the method: as §1

[26] = molecular target: Neu5Ac(a2-3)Gal(b1-3)GlcNAc
Summary of the method: as §1

[27] = molecular target: Neu5Ac(a2-3)Gal(b1-3)GlcNAc6S
Summary of the method: as §1

[28] = molecular target: Neu5Ac(a2-3)Gal(b1-3)[Fuc(a1-4)]GlcNAc
Summary of the method: as §1

[29] = molecular target: Neu5Ac(a2-3)Gal(b1-3)[Fuc(a1-4)]GlcNAc(b1-3)Gal(b1-4)[Fuc(a1-3)]GlcNAc
Summary of the method: as §1

[30] = molecular target: Neu5Ac(a2-3)Gal(b1-3)[Neu5Ac(a2-3)Gal(b1-4)]GlcNAc
Summary of the method: as §1

[31] = molecular target: Neu5Ac(a2-3)Gal(b1-3)[Neu5Ac(a2-6)]GalNAc
Summary of the method: as §1

[32] = molecular target: Neu5Ac(a2-3)Gal(b1-4)Glc
Summary of the method: as §1

[33] = molecular target: Neu5Ac(a2-3)Gal(b1-4)GlcNAc
Summary of the method: as §1

[34] = molecular target: Neu5Ac(a2-3)Gal(b1-4)GlcNAc(b1-2)Man(a1-3)[Neu5Ac(a2-3)Gal(b1-4)GlcNAc(b1-2)Man(a1-6)]Man(b1-4)GlcNAc(b1-4)GlcNAc
Summary of the method: as §1

[35] = molecular target: Neu5Ac(a2-3)Gal(b1-4)GlcNAc(b1-3)Gal(b1-4)GlcNAc
Summary of the method: as §1

[36] = molecular target: Neu5Ac(a2-3)Gal(b1-4)GlcNAc(b1-3)Gal(b1-4)GlcNAc(b1-3)Gal(b1-4)GlcNAc
Summary of the method: as §1

[37] = molecular target: Neu5Ac(a2-3)Gal(b1-4)GlcNAc(b1-3)Gal(b1-4)[Fuc(a1-3)]GlcNAc
Summary of the method: as §1

B1: FaeGad (Escherichia coli) (protein)
chain: WMTGDFNGSVDIGGSITADDYRQKWEWEVGTGLNGFGSVLNDLTNGGTKLTITVTGNKPILLGRTKEAFATPVTSGVDGIPHIAFTDYEGASVELRNPDGETEKGLTYFVLPMKNAEGTKVGSVKVNASYAGALGRGGVTSADGELMSLFAEGSHAIFYGGLPTNVKNSELKGGSAAAARTELFGSLSKNDILGQIQRVNANITSLVNVPGSFNENMAYTDGSVVSVAYALGIANGQTIEATFNQAVTTSTQWSAPLNVAITYY
With B1 the “glycan array binding signal (z-score)” value [1] was 0.157, the “glycan array binding signal (z-score)” value [2] was 0.048 and the “glycan array binding signal (z-score)” value [3] was 0.25. For the same binder, the “glycan array binding signal (z-score)” value [4] was 0.327, the “glycan array binding signal (z-score)” value [5] was 0.514 and the “glycan array binding signal (z-score)” value [6] was -0.278. The “glycan array binding signal (z-score)” value [7] was -0.283, the “glycan array binding signal (z-score)” value [8] was 0.369 and the “glycan array binding signal (z-score)” value [9] was 1.83. The “glycan array binding signal (z-score)” value [10] was -0.083, the “glycan array binding signal (z-score)” value [11] was 1.23 and the “glycan array binding signal (z-score)” value [12] was 0.703. For the same binder, the “glycan array binding signal (z-score)” value [13] was 1, the “glycan array binding signal (z-score)” value [14] was 1.15 and the “glycan array binding signal (z-score)” value [15] was -0.081. For the same binder, the “glycan array binding signal (z-score)” value [16] was 0.242, the “glycan array binding signal (z-score)” value [17] was -0.243 and the “glycan array binding signal (z-score)” value [18] was -0.288. For the same binder, the “glycan array binding signal (z-score)” value [19] was -0.261, the “glycan array binding signal (z-score)” value [20] was -0.511 and the “glycan array binding signal (z-score)” value [21] was -0.426. For the same binder, the “glycan array binding signal (z-score)” value [22] was -0.345, the “glycan array binding signal (z-score)” value [23] was -0.464 and the “glycan array binding signal (z-score)” value [24] was -0.416. The “glycan array binding signal (z-score)” value [25] was -0.422, the “glycan array binding signal (z-score)” value [26] was -0.456 and the “glycan array binding signal (z-score)” value [27] was -0.205. For the same binder, the “glycan array binding signal (z-score)” value [28] was -0.412, the “glycan array binding signal (z-score)” value [29] was 0.8 and the “glycan array binding signal (z-score)” value [30] was -0.501. The “glycan array binding signal (z-score)” value [31] was -0.385, the “glycan array binding signal (z-score)” value [32] was -0.389 and the “glycan array binding signal (z-score)” value [33] was -0.386. For the same binder, the “glycan array binding signal (z-score)” value [34] was -0.026, the “glycan array binding signal (z-score)” value [35] was -0.466 and the “glycan array binding signal (z-score)” value [36] was -0.49. For the same binder, the “glycan array binding signal (z-score)” value [37] was 0.139.
